From the supplement of paper PMC4166925
± gives the standard deviation of the averaged measurements. Whole data set: some 33,000 sequences, median “E-score (dimensionless, -0.5 to 0.5)” near -0.049, cut for the highest 2% near 0.37. The list shows a part of the results.

What follows are sequences tested on T1, PmTbr T-box DNA-binding domain (GST fusion) (assay: PBM E-score of 8-mer (E-score (dimensionless, -0.5 to 0.5)); Tbr is Tbrain of the sea star Patiria miniata (Pm) or the sea urchin Strongylocentrotus purpuratus (Sp); higher = stronger binding preference; most listed sequences are background and not binding sites). Conditions: the construct has about 5 more residues each side.
T1 sequence: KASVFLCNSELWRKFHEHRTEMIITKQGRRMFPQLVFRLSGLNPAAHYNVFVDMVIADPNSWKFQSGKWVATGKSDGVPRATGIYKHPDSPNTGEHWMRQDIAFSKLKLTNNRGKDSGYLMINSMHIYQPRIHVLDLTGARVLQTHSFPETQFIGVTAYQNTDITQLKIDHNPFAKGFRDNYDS
Procedure, shortened: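 Universal Agilent oligonucleotide arrays, made double-stranded by primer extension, were incubated with 200 nM GST-fused Tbr T-box DNA-binding domain in PBS (pH 7.5). The protein was expressed in BL21 E. coli at 20 °C and purified by glutathione affinity chromatography. After scanning and quantification, the Universal PBM Analysis Suite assigned an enrichment E-score to each ungapped 8-mer, averaged over duplicate arrays.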
For CGAACCAC, the “PBM E-score of 8-mer” value was -0.0517 ± 0.072. In the case of GAGTAATC, the “PBM E-score of 8-mer” value is reported as 0.0289 ± 0.036. AAAATGTT was tested, and the “PBM E-score of 8-mer” value was -0.26 ± 0.032. In the case of GTAAATCA, the “PBM E-score of 8-mer” value is reported as 0.0107 ± 0.017. With GCTGGACC the “PBM E-score of 8-mer” value was -0.305 ± 0.095. In the case of ATGTATCA, the “PBM E-score of 8-mer” value is reported as 0.165 ± 0.016. In the case of AGAATCAG, the “PBM E-score of 8-mer” value is reported as -0.271 ± 0.061. In the case of CAGGCATA, the “PBM E-score of 8-mer” value is reported as -0.204 ± 0.012. With GATAGCAC the “PBM E-score of 8-mer” value was 0.3558 ± 0.0009. With GACTGCTC the “PBM E-score of 8-mer” value was -0.189 ± 0.0021. For CGGAACAG, the “PBM E-score of 8-mer” value was -0.0341 ± 0.0021. In the case of GAAGCCGC, the “PBM E-score of 8-mer” value is reported as 0.0884 ± 0.0025. With TCCCACCA the “PBM E-score of 8-mer” value was 0.0909 ± 0.011. In the case of AAGTACGA, the “PBM E-score of 8-mer” value is reported as -0.0268 ± 0.021. With GGGACGGA the “PBM E-score of 8-mer” value was -0.192 ± 0.044. With CACACTAA the “PBM E-score of 8-mer” value was 0.241 ± 0.1. In the case of GTGAGCGA, the “PBM E-score of 8-mer” value is reported as 0.0746 ± 0.0075. AGGCTGAA was tested, and the “PBM E-score of 8-mer” value was -0.124 ± 0.018. In the case of CCGTCTCC, the “PBM E-score of 8-mer” value is reported as -0.1972 ± 0.00052. For CAGGAGCG, the “PBM E-score of 8-mer” value was -0.107 ± 0.02. With AAGGGTGA the “PBM E-score of 8-mer” value was 0.19 ± 0.0034. With GACCGTGC the “PBM E-score of 8-mer” value was -0.0323 ± 0.021. With ACTCGTAT the “PBM E-score of 8-mer” value was 0.0291 ± 0.0037. For AGAGACCC, the “PBM E-score of 8-mer” value was -0.168 ± 0.05. For ACTTAACT, the “PBM E-score of 8-mer” value was 0.0692 ± 0.0023. In the case of CAATGGAC, the “PBM E-score of 8-mer” value is reported as -0.0519 ± 0.011. CTCGGGCC was tested, and the “PBM E-score of 8-mer” value was -0.147 ± 0.047. In the case of CTGGGCTC, the “PBM E-score of 8-mer” value is reported as -0.2693 ± 0.00028. For GAGCGAAA, the “PBM E-score of 8-mer” value was 0.077 ± 0.028. With CCCAGACC the “PBM E-score of 8-mer” value was 0.0363 ± 0.0064. In the case of CGAGTCCA, the “PBM E-score of 8-mer” value is reported as -0.145 ± 0.013. ATTTAGCG was tested, and the “PBM E-score of 8-mer” value was 0.251 ± 0.038. In the case of ACCACAAC, the “PBM E-score of 8-mer” value is reported as 0.0895 ± 0.082. With CCGCCCAG the “PBM E-score of 8-mer” value was 0.0652 ± 0.03. In the case of GACTGCTA, the “PBM E-score of 8-mer” value is reported as -0.0203 ± 0.018. For ACTGCATA, the “PBM E-score of 8-mer” value was 0.00104 ± 0.047. In the case of ACAACCAA, the “PBM E-score of 8-mer” value is reported as -0.0472 ± 0.0033. GAGCATAC was tested, and the “PBM E-score of 8-mer” value was -0.012 ± 0.086. AAAGCTTA was tested, and the “PBM E-score of 8-mer” value was 0.0234 ± 0.01. In the case of CGAATTCC, the “PBM E-score of 8-mer” value is reported as -0.164 ± 0.079. For AGTCCCAC, the “PBM E-score of 8-mer” value was 0.00665 ± 0.0034. In the case of ATGCAATA, the “PBM E-score of 8-mer” value is reported as -0.341 ± 0.0082. For TCACTTCA, the “PBM E-score of 8-mer” value was 0.186 ± 0.021. For GCAACAAC, the “PBM E-score of 8-mer” value was 0.0808 ± 0.019. In the case of CGAAATAA, the “PBM E-score of 8-mer” value is reported as 0.233 ± 0.009. With AGCACCGG the “PBM E-score of 8-mer” value was 0.0404 ± 0.045. GGTGTAGA was tested, and the “PBM E-score of 8-mer” value was 0.341 ± 0.011. With GCCTGGCA the “PBM E-score of 8-mer” value was 0.182 ± 0.023. For AATAAAAT, the “PBM E-score of 8-mer” value was -0.0375 ± 0.16. For ATCTCCAC, the “PBM E-score of 8-mer” value was -0.00808 ± 0.021. In the case of AAGCGTTC, the “PBM E-score of 8-mer” value is reported as 0.00655 ± 0.0066. In the case of GATTCCCA, the “PBM E-score of 8-mer” value is reported as 0.0419 ± 0.025. In the case of AGACATCT, the “PBM E-score of 8-mer” value is reported as -0.225 ± 0.02. For AGCATCCT, the “PBM E-score of 8-mer” value was -0.0489 ± 0.021. With AGACAACA the “PBM E-score of 8-mer” value was 0.153 ± 0.0063. For TCTCTCAA, the “PBM E-score of 8-mer” value was 0.104 ± 0.02. With ACAAATAT the “PBM E-score of 8-mer” value was 0.102 ± 0.071. GGAGCGTA was tested, and the “PBM E-score of 8-mer” value was -0.187 ± 0.047. With ATTAGTCC the “PBM E-score of 8-mer” value was -0.29 ± 0.097. With AAGACACC the “PBM E-score of 8-mer” value was 0.3306 ± 0.0024. In the case of AAACTAAC, the “PBM E-score of 8-mer” value is reported as 0.239 ± 0.05. For ACTCGTTA, the “PBM E-score of 8-mer” value was 0.148 ± 0.012. CTGGTAAG was tested, and the “PBM E-score of 8-mer” value was -0.0318 ± 0.058. With ACATATTA the “PBM E-score of 8-mer” value was -0.131 ± 0.051. AGGTTTGA was tested, and the “PBM E-score of 8-mer” value was 0.0543 ± 0.0026. With AAGAGGAA the “PBM E-score of 8-mer” value was -0.204 ± 0.07. In the case of ATGTGTGG, the “PBM E-score of 8-mer” value is reported as 0.3184 ± 0.0012. In the case of GGCGGTAC, the “PBM E-score of 8-mer” value is reported as 0.0877 ± 0.056. For GATGCGCA, the “PBM E-score of 8-mer” value was 0.0235 ± 0.013. TCAGCGCA was tested, and the “PBM E-score of 8-mer” value was -0.015 ± 0.075. CTAGAATC was tested, and the “PBM E-score of 8-mer” value was -0.0716 ± 0.089. GCTTGGCC was tested, and the “PBM E-score of 8-mer” value was -0.192 ± 0.015. In the case of CTGTCACC, the “PBM E-score of 8-mer” value is reported as 0.428 ± 0.013. In the case of CTTTAAAG, the “PBM E-score of 8-mer” value is reported as 0.116 ± 0.04. In the case of CATGTCAG, the “PBM E-score of 8-mer” value is reported as -0.0539 ± 0.036. In the case of GAAGCCTA, the “PBM E-score of 8-mer” value is reported as -0.215 ± 0.018. In the case of AGTGAGCC, the “PBM E-score of 8-mer” value is reported as -0.107 ± 0.0082. In the case of GATCAAAC, the “PBM E-score of 8-mer” value is reported as 0.0441 ± 0.01. AGTTGACG was tested, and the “PBM E-score of 8-mer” value was 0.153 ± 0.053. In the case of CATCACTC, the “PBM E-score of 8-mer” value is reported as 0.143 ± 0.007. With TCAGCCCA the “PBM E-score of 8-mer” value was -0.187 ± 0.0087. With CACTAACA the “PBM E-score of 8-mer” value was 0.288 ± 0.012. With ATCGTCAT the “PBM E-score of 8-mer” value was -0.0319 ± 0.033. For ACACGAAC, the “PBM E-score of 8-mer” value was -0.0434 ± 0.016. In the case of CGTTTCAC, the “PBM E-score of 8-mer” value is reported as 0.132 ± 0.07. With CCTTCAAC the “PBM E-score of 8-mer” value was -0.183 ± 0.12. In the case of CCCGTACG, the “PBM E-score of 8-mer” value is reported as -0.19 ± 0.02. For ACGACTGG, the “PBM E-score of 8-mer” value was -0.0319 ± 0.061. In the case of CCTGCCTC, the “PBM E-score of 8-mer” value is reported as 0.0822 ± 0.034. For CGGGGCAA, the “PBM E-score of 8-mer” value was -0.147 ± 0.097. With AGACTATA the “PBM E-score of 8-mer” value was -0.0796 ± 0.016. AATTTCCT was tested, and the “PBM E-score of 8-mer” value was -0.0748 ± 0.0029. CAGGATCC was tested, and the “PBM E-score of 8-mer” value was -0.177 ± 0.018. For TTAGAGAA, the “PBM E-score of 8-mer” value was -0.103 ± 0.055.
